Laboratory results from PubChem BioAssay (Tox21).
Inconclusive means that the source gave no clear call. Such entries were picked first, then a sample of the others. For part of these data: A potency beside an inconclusive call is a rough fit, not a confirmed value. Calls of active or inactive are those of the source. Unless noted, calls follow the shape of the full dose curve.

Key:
[1] = molecular target: Estrogen receptor beta (Homo sapiens) (UniProt Q92731); experiment: qHTS assay to identify small molecule antagonists of the estrogen receptor beta (ER-beta) signaling pathway (AID 1259378; active = well fitted inhibition curve with a large enough effect in the signal ratio in the repeat runs, not every such curve was filed as active; inconclusive = weak or mixed curves, or effect the other way; inactive = no such curve, though single readings can be large or run the other way; the % refers to the signal ratio; also: potency is read from the fitted curve at half-maximal effect; as to activity, negative = inhibition: % is scaled to controls: 0 for no effect and ±100 for the full control effect); details: ER-beta-UAS-bla HEK293T, beta-lactamase FRET ratio, 16 h; activity, negative = inhibition: at 92.4 µM (top of the series) unless noted
Chain of UniProt Q92731 (Q92731 whole entry, looked up): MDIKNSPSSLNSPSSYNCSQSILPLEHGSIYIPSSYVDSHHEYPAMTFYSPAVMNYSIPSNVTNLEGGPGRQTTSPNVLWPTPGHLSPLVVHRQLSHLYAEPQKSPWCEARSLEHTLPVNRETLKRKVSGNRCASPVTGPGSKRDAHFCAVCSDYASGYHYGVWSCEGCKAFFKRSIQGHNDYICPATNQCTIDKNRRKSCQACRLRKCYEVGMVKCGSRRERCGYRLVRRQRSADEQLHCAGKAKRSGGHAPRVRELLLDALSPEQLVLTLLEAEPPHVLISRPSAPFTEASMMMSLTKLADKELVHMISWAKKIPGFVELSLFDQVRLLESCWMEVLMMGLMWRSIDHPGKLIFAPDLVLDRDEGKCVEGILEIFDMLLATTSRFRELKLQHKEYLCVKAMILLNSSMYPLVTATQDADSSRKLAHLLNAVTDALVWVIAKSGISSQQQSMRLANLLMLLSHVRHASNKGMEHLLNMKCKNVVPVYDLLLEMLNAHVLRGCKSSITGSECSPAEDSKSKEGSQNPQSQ
How it was run: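 ER-beta-UAS-bla HEK293T cells in 2% charcoal-stripped FBS medium treated with compound plus 1nM final 17-beta-estradiol for 16 hr at 37C. Beta-lactamase reporter read by FRET substrate fluorescence after 2 hours at room temperature.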

[2] = molecular target: Thyrotropin receptor (Homo sapiens) (UniProt P16473); experiment: qHTS assay to identify small molecule antagonists of the thyroid stimulating hormone receptor (TSHR) signaling pathway (AID 1259385); details: TSHR-HEK293 cAMP HTRF, TSH-stimulated antagonist mode; activity change, negative = inhibition: at 92.4 µM (top of the series) unless noted; also: nearly all actives have a fitted effect of over 20% in size; also: potency is read from the fitted curve at half-maximal effect; as to activity change, negative = inhibition: % is scaled to controls: 0 for no effect and ±100 for the full control effect
Chain of UniProt P16473 (P16473 whole entry, looked up): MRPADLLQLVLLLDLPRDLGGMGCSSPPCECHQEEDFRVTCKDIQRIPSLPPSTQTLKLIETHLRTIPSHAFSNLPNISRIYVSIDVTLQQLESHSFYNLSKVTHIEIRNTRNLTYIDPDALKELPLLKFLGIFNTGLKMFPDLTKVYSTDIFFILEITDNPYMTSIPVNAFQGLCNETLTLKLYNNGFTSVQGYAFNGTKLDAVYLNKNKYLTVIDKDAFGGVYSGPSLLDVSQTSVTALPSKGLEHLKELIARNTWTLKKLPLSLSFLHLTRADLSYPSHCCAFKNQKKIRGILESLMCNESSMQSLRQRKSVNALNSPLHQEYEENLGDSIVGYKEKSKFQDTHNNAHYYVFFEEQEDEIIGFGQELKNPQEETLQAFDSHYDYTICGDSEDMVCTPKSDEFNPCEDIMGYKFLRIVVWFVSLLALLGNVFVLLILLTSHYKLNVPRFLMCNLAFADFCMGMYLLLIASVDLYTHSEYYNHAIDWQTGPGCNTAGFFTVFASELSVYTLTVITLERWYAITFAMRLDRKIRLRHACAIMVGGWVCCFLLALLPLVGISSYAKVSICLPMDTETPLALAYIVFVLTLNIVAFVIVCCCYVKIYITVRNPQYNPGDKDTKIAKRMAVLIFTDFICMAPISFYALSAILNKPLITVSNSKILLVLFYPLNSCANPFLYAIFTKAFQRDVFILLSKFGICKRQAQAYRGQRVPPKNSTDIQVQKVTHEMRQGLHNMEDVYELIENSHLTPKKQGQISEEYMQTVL
How it was run: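 TSHR-HEK293 cells (800/well) plated 18 h, then compounds with Ro20-1724 and TSH at 1.5 ng/mL final, 30 min at room temperature. cAMP quantified by HTRF (cAMP-d2/anti-cAMP-cryptate, 1 h); 15 concentrations in triplicate.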

[3] = qHTS assay to identify small molecule agonists of the estrogen receptor alpha (ER-alpha) signaling pathway in the presence of an antagonist - cell viability counter screen (AID 1259386; active = well fitted curve in the direction sought with a large enough effect in the repeat runs; inconclusive = weak or mixed curves; inactive = no such curve, though single readings can be large; an effect the other way counts as inactive or inconclusive;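 also: cells exposed to compounds for 22 h at 37 °C before the viability read; nearly all actives have a fitted effect of over 30% in size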; also: potency is read from the fitted curve at half-maximal effect)
How it was run: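 Read-out: CellTiter-Fluor fluorescence after 1hr reagent incubation, measured in the same wells as the luciferase readout. VM7Luc4E2 cells were exposed to 15 compound concentrations with 10.0nM ICI-182,780 for 22hr at 37C.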

[4] = molecular target: Progesterone receptor (Homo sapiens) (UniProt P06401); experiment: qHTS assay to identify small molecule antagonists of the progesterone receptor (PR) signaling pathway (AID 1346795; active = well fitted inhibition curve with a large enough effect in the signal ratio in the repeat runs, not every such curve was filed as active; inconclusive = weak or mixed curves; the % refers to the signal ratio; also: potency is read from the fitted curve at half-maximal effect); details: PR-UAS-bla HEK293T, beta-lactamase FRET ratio, 16 h; activity change, negative = inhibition: at 92.4 µM (top of the series) unless noted
Chain of UniProt P06401 (P06401 whole entry, looked up): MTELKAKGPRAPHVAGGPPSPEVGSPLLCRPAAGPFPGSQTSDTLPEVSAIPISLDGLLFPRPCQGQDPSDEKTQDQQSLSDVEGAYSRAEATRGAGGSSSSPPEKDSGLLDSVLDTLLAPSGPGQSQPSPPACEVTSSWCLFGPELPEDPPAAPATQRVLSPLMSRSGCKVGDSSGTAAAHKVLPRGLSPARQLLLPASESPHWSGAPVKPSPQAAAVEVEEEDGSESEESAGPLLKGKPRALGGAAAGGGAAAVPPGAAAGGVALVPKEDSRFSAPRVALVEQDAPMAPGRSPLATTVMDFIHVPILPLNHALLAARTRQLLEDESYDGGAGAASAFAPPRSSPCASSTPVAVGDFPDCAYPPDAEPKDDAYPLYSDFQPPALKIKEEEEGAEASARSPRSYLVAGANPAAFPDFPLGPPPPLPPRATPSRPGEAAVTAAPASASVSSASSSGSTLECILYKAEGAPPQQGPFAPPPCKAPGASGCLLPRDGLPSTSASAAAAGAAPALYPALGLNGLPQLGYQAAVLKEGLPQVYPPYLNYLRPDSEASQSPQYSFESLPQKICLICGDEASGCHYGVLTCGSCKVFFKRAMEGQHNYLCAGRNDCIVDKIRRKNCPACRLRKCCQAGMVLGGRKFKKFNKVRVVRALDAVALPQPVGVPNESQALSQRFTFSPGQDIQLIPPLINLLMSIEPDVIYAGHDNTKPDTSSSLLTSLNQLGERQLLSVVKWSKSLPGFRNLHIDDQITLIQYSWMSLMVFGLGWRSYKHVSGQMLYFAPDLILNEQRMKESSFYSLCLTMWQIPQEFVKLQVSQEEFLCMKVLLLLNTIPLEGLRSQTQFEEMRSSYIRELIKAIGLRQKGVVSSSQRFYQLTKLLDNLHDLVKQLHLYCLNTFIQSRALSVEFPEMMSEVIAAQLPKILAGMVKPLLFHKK
How it was run: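 Antagonist mode: compounds tested against 1 nM (final) promegestone stimulation in HEK293T cells expressing PR-UAS-bla reporter, 16 hr at 37C, 5% CO2; beta-lactamase activity detected via B/G FRET substrate after 2 hr at room temperature.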

[5] = molecular target: Thyrotropin-releasing hormone receptor (Homo sapiens) (UniProt P34981); experiment: qHTS assay to identify small molecule antagonists of the thyrotropin-releasing hormone receptor (TRHR) signaling pathway (AID 1346877; active = well fitted inhibition curve with a large enough effect in the repeat runs, not every such curve was filed as active; inconclusive = weak or mixed curves; also: % is scaled to controls: 0 for no effect and ±100 for the full control effect)
Chain of UniProt P34981 (P34981 whole entry, looked up): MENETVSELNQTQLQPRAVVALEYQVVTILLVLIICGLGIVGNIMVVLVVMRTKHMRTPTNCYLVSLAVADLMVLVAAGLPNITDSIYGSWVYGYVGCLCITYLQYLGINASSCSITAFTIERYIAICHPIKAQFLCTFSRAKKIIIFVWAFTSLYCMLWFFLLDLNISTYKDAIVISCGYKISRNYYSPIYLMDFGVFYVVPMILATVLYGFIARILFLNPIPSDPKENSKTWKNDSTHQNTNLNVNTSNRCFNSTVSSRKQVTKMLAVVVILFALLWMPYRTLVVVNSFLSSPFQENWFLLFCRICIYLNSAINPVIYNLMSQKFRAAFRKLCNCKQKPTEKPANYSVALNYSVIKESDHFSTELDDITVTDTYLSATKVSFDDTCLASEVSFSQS
How it was run: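 HEK293/TRHR cells, 18 h, 37 °C; Ca2+ dye 2 h; cpd 5 min RT; TRH 1 nM final; fluorescence read 3 min, 1 s intervals; 15 concs, triplicate.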

[6] = molecular target: Progesterone receptor (Homo sapiens) (UniProt P06401); experiment: qHTS assay to identify small molecule agonists of the progesterone receptor (PR) signaling pathway (AID 1346784); details: PR-UAS-bla HEK293T, beta-lactamase FRET ratio, 16 h; activation: at 92.4 µM (top of the series) unless noted; also: nearly all actives have a fitted effect of over 30% in size; also: potency is read from the fitted curve at half-maximal effect
How it was run: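 Cells (PR-UAS-bla HEK 293T, GripTite) were plated in assay medium containing 2% charcoal-stripped FBS and incubated 6 hr. Test compounds in DMSO were added for 16 hr at 37C. FRET substrate was then loaded for 2 hr at room temperature before fluorescence reading.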

[7] = qHTS assay to identify small molecule agonists or antagonists of the thyroid stimulating hormone receptor (TSHR) signaling pathway - wild type cell line counter screen (AID 1259384); details: HEK293 wild type, cAMP HTRF counter-screen; cAMP activity change: at 92.4 µM (top of the series), stronger effect = higher value unless noted; also: % is scaled to controls: 0 for no effect and ±100 for the full control effect
How it was run: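 Wild-type Hek293 cells, 800/well, 18 h at 37C, then compound with Ro20-1724 for 30 min RT. cAMP by HTRF (cAMP-d2/anti-cAMP cryptate), 1 h RT, fluorescence read. 15 concentrations, triplicates.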

[8] = qHTS assay to identify small molecule antagonists of the progesterone receptor (PR) signaling pathway - cell viability counter screen (AID 1346798; active = well fitted curve in the direction sought with a large enough effect in the repeat runs; inconclusive = weak or mixed curves; inactive = no such curve, though single readings can be large; an effect the other way counts as inactive or inconclusive; also: nearly all actives have a fitted effect of over 50% in size; also: potency is read from the fitted curve at half-maximal effect)
How it was run: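 Counter screen for cytotoxicity: viability of PR-UAS-bla HEK293T cells was measured with CellTiter-Glo luminescence following 16 hr compound exposure in the presence of R5020.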

[9] = qHTS assay to identify small molecule agonists of the progesterone receptor (PR) signaling pathway - cell viability counter screen (AID 1346799); also: nearly all actives have a fitted effect of over 45% in size; also: potency is read from the fitted curve at half-maximal effect
How it was run: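 Cells (PR-UAS-bla HEK293T) are plated at 3,000/well in 2% charcoal-stripped FBS medium, rested 6 hr, dosed and incubated 16 hr at 37C. CellTiter-Glo is then added and luminescence measured after 30 min at room temperature.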

[10] = qHTS assay to identify small molecule antagonists of the estrogen receptor beta (ER-beta) signaling pathway - cell viability counter screen (AID 1259382; active = well fitted curve in the direction sought with a large enough effect in the repeat runs; inconclusive = weak or mixed curves; inactive = no such curve, though single readings can be large; an effect the other way counts as inactive or inconclusive; also: nearly all actives have a fitted effect of over 55% in size; also: potency is read from the fitted curve at half-maximal effect)
How it was run: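 Luminescent ATP read-out (CellTiter-Glo, 30 min, RT) taken in the same wells as the bla reporter assay. HEK293T ER-beta-UAS-bla cells in 2% charcoal-stripped FBS were exposed to compounds with 1nM E2 for 16 hr at 37C.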

[11] = qHTS assay to identify small molecule agonists of the TGF-beta/Smad signaling pathway - cell viability counter screen (AID 1346829; active = well fitted curve in the direction sought with a large enough effect in the repeat runs; inconclusive = weak or mixed curves; inactive = no such curve, though single readings can be large; an effect the other way counts as inactive or inconclusive; also: top concentration of the series differs between compounds; % is scaled to controls: 0 for no effect and ±100 for the full control effect; nearly all actives have a fitted effect of over 45% in size)
How it was run: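 Compound-treated SBE-bla HEK 293T cells (5 hr, 37 C) were assessed for viability with CellTiter-Glo in parallel with the reporter read.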

[12] = qHTS assay to identify small molecule antagonists of the TGF-beta/Smad signaling pathway - cell viability counter screen (AID 1346824; active = well fitted curve in the direction sought with a large enough effect in the repeat runs; inconclusive = weak or mixed curves; inactive = no such curve, though single readings can be large; an effect the other way counts as inactive or inconclusive; also: nearly all actives have a fitted effect of over 50% in size; also: potency is read from the fitted curve at half-maximal effect)
How it was run: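 SBE-bla HEK 293T cells, incubated overnight, then compound plus 0.25 ng/mL TGF-beta1 (stock added) for 5 hr at 37 C. Viability was read in the same wells by CellTiter-Glo luminescence after 30 min at room temperature.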

[13] = qHTS assay to identify small molecule agonists of the TGF-beta/Smad signaling pathway (AID 1346859; active = well fitted activation curve with a large enough effect in the signal ratio in the repeat runs, not every such curve was filed as active; inconclusive = weak or mixed curves; the % refers to the signal ratio; also: potency is read from the fitted curve at half-maximal effect); details: SBE-bla HEK293T, TGF-beta/Smad beta-lactamase reporter, 5 h; activation: at 76.8 µM (top of the series)
How it was run: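 Reporter line: HEK 293T with stably integrated SBE-controlled beta-lactamase. Compound exposure lasts 5 hr at 37 C and 5% CO2; substrate loading follows for 2 hr at room temperature, with emission read at 460 and 530 nm.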

[14] = molecular target: Estrogen receptor (Homo sapiens) (UniProt P03372); experiment: qHTS assay to identify small molecule agonists of the estrogen receptor alpha (ER-alpha) signaling pathway in the presence of an antagonist (AID 1259383); also: potency is read from the fitted curve at half-maximal effect; nearly all actives have a fitted effect of over 15% in size
Chain of UniProt P03372 (P03372 whole entry, looked up): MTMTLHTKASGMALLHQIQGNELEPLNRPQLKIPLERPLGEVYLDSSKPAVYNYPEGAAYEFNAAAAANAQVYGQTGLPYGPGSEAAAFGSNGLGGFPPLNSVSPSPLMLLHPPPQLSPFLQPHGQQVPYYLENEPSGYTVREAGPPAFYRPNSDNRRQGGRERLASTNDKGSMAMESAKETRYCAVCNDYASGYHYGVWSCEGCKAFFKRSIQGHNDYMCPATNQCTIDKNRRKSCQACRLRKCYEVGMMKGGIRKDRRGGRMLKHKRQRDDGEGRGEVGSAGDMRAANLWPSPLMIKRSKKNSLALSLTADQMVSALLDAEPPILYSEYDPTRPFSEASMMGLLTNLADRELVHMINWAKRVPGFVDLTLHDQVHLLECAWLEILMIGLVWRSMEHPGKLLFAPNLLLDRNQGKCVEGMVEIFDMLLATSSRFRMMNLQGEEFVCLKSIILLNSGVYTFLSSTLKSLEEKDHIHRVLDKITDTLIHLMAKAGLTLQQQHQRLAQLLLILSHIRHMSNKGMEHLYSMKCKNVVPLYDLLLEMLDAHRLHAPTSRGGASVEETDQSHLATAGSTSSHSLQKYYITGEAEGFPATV
How it was run: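 Luciferase luminescence (ONE-Glo, 30min at room temperature) measured in VM7Luc4E2 cells after 22hr compound exposure at 15 concentrations, with 10.0nM ICI-182,780 final present; cells express endogenous ER-alpha and carry four EREs upstream of luciferase.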
Tags tell the direction and shape of the fitted curve or compound fluorescence and quenching.

In the case of CN(C)CCC(c1ccccc1)c1ccccn1 (stereo unspecified), the Potency [1] is reported as “inactive”, the Potency [2] is reported as inconclusive: 1.09 µM [falling, single point] and the Potency [3] is reported as inconclusive: 13.3 µM [cytotoxic, single point]. The Potency [4] was inconclusive: 29.8 µM [falling, single point] and the Potency [5] was “inactive”.
For c1ccc2c(c1)ccc1c3ccccc3ccc21, the Potency [1] was “inactive”, the Potency [6] was inconclusive: 12.4 µM [activator, single point] and the Potency [4] was inconclusive: 2.21 µM [falling, full curve].
In the case of CCC(=O)/C=C/c1ccc(OC)cc1, the Potency [1] is reported as inconclusive: 54.5 µM [inhibitor, partial curve], the cAMP activity change [7] is reported as inconclusive: -0.306% and the Potency [2] is reported as inconclusive: 77 µM [falling, single point]. For the same compound, the Potency [4] was inconclusive: 54.5 µM [falling, partial curve], the Potency [8] was “inactive” and the Potency [9] was inconclusive: 68.6 µM [rising, single point].
For COC(=O)[C@@H]1[C@H]2C[C@H]3c4[nH]c5ccccc5c4CCN3C[C@@H]2CC[C@@H]1O, the activity, negative = inhibition [1] was inconclusive: 23.1% [at 42.5 µM], the activity change, negative = inhibition [2] was inconclusive: -13.1% [at 42.5 µM] and the Potency [4] was “inactive”. For the same compound, the Potency [8] was “inactive” and the Potency [9] was inconclusive: 29.8 µM [cytotoxic, single point].
In the case of CCOC(=O)C(C)Oc1ccc(Oc2nc3ccc(Cl)cc3o2)cc1 (stereo unspecified), the Potency [1] is reported as inconclusive: 30.6 µM [inhibitor, partial curve], the Potency [6] is reported as “inactive” and the Potency [4] is reported as inconclusive: 54.5 µM [falling, partial curve]. For the same compound, the Potency [8] was “inactive”.
With CN(C)[C@@H]1C(=O)C(C(=O)NCN2CCCC2)=C(O)[C@@]2(O)C(=O)C3=C(O)c4c(O)cccc4[C@@](C)(O)C3C[C@@H]12 (stereo partly specified) the Potency [1] was “inactive”, the Potency [10] was “inactive” and the Potency [2] was “inactive”.
For CCN(CC)CC(=O)OCC(=O)[C@@]1(O)CC[C@H]2[C@@H]3CCC4=CC(=O)CC[C@]4(C)[C@H]3[C@@H](O)C[C@@]21C, the activity, negative = inhibition [1] was inconclusive: 2.32% [at 42.5 µM], the Potency [6] was inconclusive: 29.8 µM [activator] and the Potency [4] was inconclusive: 2.66 µM [falling, full curve].
In the case of CC(C)C[C@H](NC(=O)[C@H](Cc1ccccc1)NC(=O)c1cnccn1)B(O)O, the Potency [1] is reported as inconclusive: 0.0335 µM [rising, full curve], the Potency [10] is reported as inconclusive: 1.5 µM [cytotoxic, full curve] and the Potency [4] is reported as inconclusive: 0.944 µM [rising, full curve].
With CC(=O)NCCCS(=O)(=O)O the Potency [1] was “inactive”, the Potency [6] was “inactive” and the activity change, negative = inhibition [4] was inconclusive: 8.68% [at 42.5 µM].
In the case of COc1ccccc1NC(=O)CC(C)=O, the activity, negative = inhibition [1] is reported as inconclusive: 4.86%, the cAMP activity change [7] is reported as inconclusive: 21.5% and the Potency [9] is reported as inconclusive: 603 nM [cytotoxic, single point] and inactive. For the same compound, the Potency [11] was “inactive”.
With O=C1CCN(c2ccccc2)N1 the activity, negative = inhibition [1] was inconclusive: -34%, the Potency [10] was inconclusive: 30.7 µM [cytotoxic, partial curve] and the Potency [6] was inconclusive: 10.9 µM [activator, full curve]. The Potency [8] was inconclusive: 43.4 µM [cytotoxic, partial curve].
For CSc1ccc(C=O)cc1, the Potency [1] was “inactive” and the Potency [6] was “inactive”.
For Cc1ccc2sc3cccc(C)c3c2c1, the Potency [1] was “inactive”, the Potency [3] was “inactive” and the Potency [4] was inconclusive: 13.7 µM [falling, full curve]. The Potency [12] was “inactive”.
With COC(C)(C)CCO the Potency [1] was “inactive”, the Potency [3] was “inactive” and the Potency [12] was inconclusive: 9.77 µM [cytotoxic, partial curve, poor fit].
For CC(=O)O[Si](C)(OC(C)=O)OC(C)=O, the Potency [1] was “inactive”, the Potency [2] was inconclusive: 0.249 µM [falling, single point] and the Potency [4] was “inactive”.
For CN1CCN(C2=Nc3ccccc3Oc3ccc(Cl)cc32)CC1, the Potency [1] was “inactive”, the Potency [2] was inconclusive: 26.6 µM [falling, partial curve, poor fit] and the Potency [4] was active: 26.6 µM. For the same compound, the Potency [9] was “inactive” and the Potency [13] was inconclusive: 9.52 µM [rising, partial curve].
In the case of NNc1nnc(NN)c2ccccc12, the Potency [1] is reported as “inactive” and the Potency [14] is reported as inconclusive: 26.6 µM [activator, partial curve, poor fit].
With CSc1ccc(Oc2ccc(S(N)(=O)=O)cc2CN(C)C)cc1C the activity, negative = inhibition [1] was inconclusive: -49%, the Potency [2] was inconclusive: 77 µM and the Potency [4] was inconclusive: 27.3 µM [rising, full curve, poor fit]. For the same compound, the Potency [8] was inconclusive: 24.3 µM [cytotoxic, single point].
